According to patent US9314479B2, “Methods and compositions for the disruption of biofilms” (National Jewish Health, priority 2007, dated 2016):

Experiments:
[1] = system: P. aeruginosa PAO1 in the presence of neutrophils; assay: Crystal violet assay: prevention of neutrophil-induced biofilm formation, agent added at time=0, 24 hours; conditions: poly(amino acid) 10 μM added at time=0, 24 hours at 37° C., 1:1000 ratio
[2] = system: Pseudomonas PAO1 biofilms induced by neutrophils; assay: Crystal violet assay: disruption of 24 hour neutrophil-induced biofilm without removal of neutrophils (overnight culture material present), 3 hours; conditions: 3 hours at 37° C.; for disruption of the biofilm in the presence of overnight culture material, long versus short chain: 74 mer and 260 mer compared
P. aeruginosa = assay: Antibiotic potential of the components of the peptide assays (bacteria recovered from pooled wells); type: cell-based, Pseudomonas aeruginosa; conditions: tested individually and in combination, data not shown
Procedure: To quantify the density of biofilms formed under various conditions biofilms were established on a NUNC Tsp plate lid as detailed above. Pegs were rinsed in saline for 2 minutes, then placed in a 96 well round bottom Nunc plate with 150 μL sterile saline, and sonicated twice for 10 minutes in a Fisher FS 110 sonicator (Pittsburgh, Pa.). Test wells were pooled, and serially diluted 10 fold, and 20 μL was plated in triplicate at the 1×10^−3 to 1×10^−6 dilutions onto LB agar for quantization.
The robust activity of poly(R) in the prevention of biofilm formation led to a question of an alternate mechanism of disruption in this system. To address this, the antibiotic potential of all the components of the peptide assays were tested individually and, when appropriate, in combination.
The unexpectedly robust activity of (Arg)74 in the prevention of biofilm formation led to a question of an alternate mechanism of disruption in this system. To address this, the antibiotic potential of all the components used in the peptide assays were tested individually and, when appropriate, in combination. […] While highly cationic proteins can serve as antimicrobials, we are not aware of previous reports of simple poly(amino acids) with this property.

[3] = system: Pseudomonas PAO1 biofilms induced by neutrophils; assay: Crystal violet assay: disruption of 24 hour neutrophil-induced biofilm, removed from neutrophil products and treated in saline for 3 hours; conditions: 3 hours at 37° C.; for disruption of the biofilm (optical density from crystal violet staining): 24 h biofilm washed, in saline; for disruption of the biofilm, longer (260) versus shorter (74) chain: equimolar concentrations (FIG. 14B: 5 M printed), saline
[4] = system: PA01 biofilms formed in the presence of neutrophils; assay: Crystal violet assay: 10 minute exposure of 24 or 48 hour neutrophil-induced PA01 biofilms to poly(amino acid) and/or DNase; conditions: DNase 33 μg/mL
[5] = system: neutrophil induced B. Thailandensis biofilm; type: cell-based
[6] = system: P. aeruginosa Late CF strain biofilms; assay: Crystal violet assay: 10 minute exposure of neutrophil-induced Late CF strain biofilms to (Asp)260 and/or DNase; type: cell-based, Pseudomonas aeruginosa; conditions: (Asp)260 5 μM, DNase 33 μg/mL, 10 minutes at 37° C. in saline
[7] = system: P. aeruginosa Early CF strain biofilms; assay: Crystal violet assay: 10 minute exposure of neutrophil-induced Early CF strain biofilms to (Asp)260 and/or DNase; type: cell-based, Pseudomonas aeruginosa; conditions: (Asp)260 5 μM, DNase 33 μg/mL, 10 minutes at 37° C. in saline
[8] = poly(amino acid) 5 μM, 10 minutes at 37° C. in saline

Question: How did the “prevention of biofilm formation” value ([1]; listed as poly(D) ~75 mer) turn out when polyaspartic acid [(Asp)74] was run?
Answer: prevented biofilm formation

Question: And the “disruption of the biofilm in the presence of neutrophils / overnight culture material” value ([2]; poly(amino acid) 5 μM)?
Answer: failed to disrupt the biofilm

Question: What about the “disruption of the biofilm in the presence of neutrophils / overnight culture material” value ([2]; poly(amino acid) 10 μM) of the same molecule?
Answer: failed to disrupt the biofilm

Question: What about the “intrinsic antibiotic effect on P. aeruginosa” value (P. aeruginosa) of the same molecule?
Answer: had no intrinsic antibiotic effect

Question: What about the “disruption of the biofilm (optical density from crystal violet staining)” value ([3]; poly(amino acid) 5 μM) of the same molecule?
Answer: exhibited disruption of the biofilm

Question: And the “disruption of the biofilm (optical density from crystal violet staining)” value ([3]; poly(amino acid) 10 μM)?
Answer: this effect was significantly greater at 10 μM

Question: polyarginine [(Arg)74] was tested. Which “prevention of biofilm formation” value ([1]; listed as Poly(R)) did it give?
Answer: more effective at preventing the formation of biofilms

Question: What about the “prevention of biofilm formation” value ([1]; listed as poly(Arg)) of the same molecule?
Answer: significantly better then poly(Asp)

Question: And the “disruption of the biofilm in the presence of overnight culture material, long versus short chain” value [2]?
Answer: had a significant effect

Question: And the “disruption of the biofilm in the presence of neutrophils / overnight culture material” value ([2]; poly(amino acid) 5 μM)?
Answer: small but significant capacity to disrupt the biofilm

Question: And the “disruption of the biofilm in the presence of neutrophils / overnight culture material” value ([2]; poly(amino acid) 5 μM, listed as poly(R) ~75 mer)?
Answer: exhibited a dose dependent response

Question: And the “intrinsic antibiotic effect on P. aeruginosa” value (P. aeruginosa)?
Answer: bactericidal

Question: What about the “intrinsic antibiotic effect on P. aeruginosa” value (P. aeruginosa; listed as poly(R)) of the same molecule?
Answer: bactericidal or bacteriostatic

Question: And the “disruption of the biofilm (optical density from crystal violet staining)” value ([3]; poly(amino acid) 10 μM)?
Answer: this effect was not significantly greater with 10 μM

Question: Which “reduction in biofilm density, 24 hour biofilm” value ([4]; 10 minutes, (Asp)260 5 μM) does the source give for polyaspartic acid [(Asp)260] here?
Answer: 49%

Question: And the “disruption of 24 hour biofilm, 10 minute exposure” value [4, 8]?
Answer: effectively disrupted 24 hour old biofilms

Question: And the “disruption of the biofilm (optical density from crystal violet staining)” value [5]?
Answer: induced disruption of the biofilm

Question: And the “disruption of 24 hour Late strain biofilm” value [6]?
Answer: effectively disrupted a 24 hour old biofilm

Question: What about the “disruption of 48 hour Late strain biofilm” value [6] of the same molecule?
Answer: neither DNase, nor (Asp)260 was effective as a single agent

Question: And the “disruption of the biofilm, longer (260) versus shorter (74) chain” value [3]?
Answer: more effective than the shorter (Asp)74

Question: And the “disruption of the biofilm, longer (260) versus shorter (74) chain” value ([3]; listed as poly(D) ~260 mer)?
Answer: exhibited greater disruption of the biofilm than their respective shorter chain form

Question: And the “disruption of the biofilm (optical density from crystal violet staining)” value ([3]; poly(amino acid) 5 μM)?
Answer: exhibited a significant disruptive effect

Question: What about the “disruption of the biofilm (optical density from crystal violet staining)” value ([3]; poly(amino acid) 5 μM, listed as poly(D) ~260 mer) of the same molecule?
Answer: exhibited a disruptive effect

Question: What does the source list for polyarginine [(Arg)260]?
Answer: disruption of the biofilm in the presence of overnight culture material, long versus short chain [2]: had a significant effect; disruption of the biofilm, longer (260) versus shorter (74) chain [3]: had a greater effect than (Asp)74; also recorded: more effective then (Arg)74; disruption of the biofilm, longer (260) versus shorter (74) chain ([3]; listed as poly(R) ~260 mer): exhibited greater disruption of the biofilm than their respective shorter chain form; disruption of the biofilm (optical density from crystal violet staining) ([3]; poly(amino acid) 5 μM): exhibited a significant disruptive effect; disruption of the biofilm (optical density from crystal violet staining) ([3]; poly(amino acid) 5 μM, listed as poly(R) ~260 mer): exhibited a disruptive effect

Question: With `NC[C@H]1O[C@H](O[C@H]2[C@H](O)[C@@H](O[C@H]3O[C@H](CO)[C@@H](O)[C@H](N)[C@H]3O)[C@H](N)C[C@@H]2N)[C@H](N)C[C@@H]1O` [tobramycin, reference compound] as the molecule, how does the “disruption of the biofilm by antibiotics” value ([3]; 8 μg/mL to 1024 μg/mL, 24 h biofilm, listed as Tobramycin) read?
Answer: No disruption of the biofilm was observed

B1: DNase: Pulmozyme (DNase) (Genentech) at 1 mg/mL in saline (protein, UniProt P24855 23-282, looked up)
Deoxyribonuclease-1: LKIAAFNIQTFGETKMSNATLVSYIVQILSRYDIALVQEVRDSHLTAVGKLLDNLNQDAPDTYHYVVSEPLGRNSYKERYLFVYRPDQVSAVDSYYYDDGCEPCGNDTFNREPAIVRFFSRFTEVREFAIVPLHAAPGDAVAEIDALYDVYLDVQEKWGLEDVMLMGDFNAGCSYVRPSQWSSIRLWTSPTFQWLIPDSADTTATPTHCAYDRIVVAGMLLRGAVVPDSALPFNFQAAYGLSDQLAQAISDHYPVEVMLK
Question: What does the source list for B1?
Answer: disruption of 24 hour biofilm, 10 minute exposure [4, 8]: effectively disrupted 24 hour old biofilms; disruption of 48 hour biofilm, 10 minute exposure [4, 8]: effective as a single agent; disruption of 48 hour Late strain biofilm [6]: neither DNase, nor (Asp)260 was effective as a single agent; disruption of 48 hour Early strain biofilm [7]: effective as a single agent

Entries after “also recorded” stand apart in the source; their conditions may differ.
